{"source": "PubChem BioAssay AID686978", "about": "(National Center for Advancing Translational Sciences (NCATS), 2013)", "note": "Values joined by “and” are separate entries in the source; they are usually repeats but may differ in a detail not shown here. Identical values can stand only once. Among all 420,000 compounds or so, about 64,000 (15%) were called active. Inconclusive results, whose numbers are uncertain, are shown with a selection of clear calls. Calls follow the shape of the dose curve; as a rule, active = well fitted inhibition curve with a large enough effect; inconclusive = small, poorly fitted or top-dose-only effect; inactive = flat fitted curve, though single readings scatter. Potencies of inconclusive entries are doubtful fits and often do not repeat. % is scaled to controls: 0 for no effect and ±100 for the full control effect; potency is read from the fitted curve at half-maximal effect; tags tell the direction and shape of the fitted curve."}
{"assay": "qHTS for Inhibitors of human tyrosyl-DNA phosphodiesterase 1 (TDP1): qHTS in cells in absence of CPT; also: nearly all actives have a fitted effect of over 55% in size", "conditions": "DT40 Tdp1-/- hTDP1 cells, no CPT, ATP luminescence, 48 h; activity change, negative = growth inhibition: at 46.2 µM (top of the series) unless noted", "in_short": "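Chicken DT40 Tdp1-/- cells stably complemented with human TDP1 were seeded at 400 cells/well with DMSO in place of 20 nM camptothecin. After compound pinning, cells grew at least 48 hr at 37 °C; viability read by CellTiter-Glo luminescence.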"}
{"smiles": "COc1ccc(CCNC(=O)COc2ccc(S(=O)(=O)NC(C)C)cc2)cc1OC", "Potency": "inconclusive: 25.9 µM [inhibitor, single point]"}
{"smiles": "COc1ccccc1C(=O)NC(=S)/C=C1/N(C)c2ccccc2C1(C)C", "Potency": "inconclusive: 25.9 µM [inhibitor, single point]"}
{"smiles": "O=C(C[C@@H]1C/C=C\\C[C@H](NC(=O)OCC2c3ccccc3-c3ccccc32)C(=O)OC[C@@H]2CCCN2C1=O)N[C@@H](CO)Cc1ccccc1", "Potency": "active: 18.4 µM"}
{"smiles": "CCOC(=O)Cc1csc(NC(=O)/C=C\\c2ccccc2)n1", "Potency": "inconclusive: 32.6 µM [inhibitor, single point]"}
{"smiles": "Cc1ccc2scc(N3CCN(c4ccc(F)cc4)CC3)c(=O)c2c1", "Potency": "inconclusive: 29.1 µM [inhibitor, single point]"}
{"smiles": "Cc1cc(=O)c(C(=O)NCCCc2ccncc2)c2n1-c1ccccc1SC(c1cccs1)C2", "note": "(stereo unspecified)", "activity change, negative = growth inhibition": "inactive: -18.8%"}
{"smiles": "CCOc1ccccc1NC(=O)COC(=O)c1cnc(C)cn1", "activity change, negative = growth inhibition": "inactive: 1.26%"}
{"smiles": "O=C1c2[nH]nc(-c3ccc(Br)cc3)c2C(c2cccc(O)c2)N1c1ccc(Cl)cc1", "note": "(stereo unspecified)", "Potency": "active: 23.1 µM"}
{"smiles": "CC(CC(=O)N(C)CC(=O)Nc1ccc(N2CCOCC2)cc1)c1ccccc1", "note": "(stereo unspecified)", "activity change, negative = growth inhibition": "inactive: -0.993%"}
{"smiles": "Cc1cc(C(F)(F)F)n2ncc(-c3cccc(Br)c3)c2n1", "Potency": "inconclusive: 20.6 µM [inhibitor, single point]"}
{"smiles": "COc1ccc(S(=O)(=O)N2CCN(C(=O)C3COc4ccccc4O3)CC2)cc1", "note": "(stereo unspecified)", "Potency": "inconclusive: 29.1 µM [inhibitor, single point]"}
{"smiles": "CCOc1ccccc1NC(=S)C(=C([O-])c1ccc2c(c1)OCCO2)[n+]1ccc(CC)cc1", "Potency": "active: 18.4 µM"}
{"smiles": "O=C(CCCOc1ccc(Cl)cc1Cl)N1CCCc2ccccc21", "Potency": "inconclusive: 29.1 µM [inhibitor, single point]"}
{"smiles": "C=CC[C@H](CC(=O)N(CCO)Cc1ccccc1)C(=O)NCCOC(=O)[C@H](CC=C)CC(=O)OC(C)(C)C", "Potency": "active: 20.6 µM"}
{"smiles": "O=C(O)c1ccc(Nc2nc(-c3cc4ccccc4oc3=O)cs2)cc1O", "Potency": "inconclusive: 29.1 µM [inhibitor, single point]"}
{"smiles": "COc1ccc(-n2c3c(cc(-c4nc(-c5ccc(Cl)cc5)cs4)c2=O)C(=O)CC(C)(C)C3)cc1", "activity change, negative = growth inhibition": "inactive: -10.7%"}
{"smiles": "O=C(CN1C(=O)/C(=C\\c2cccc(Br)c2)Oc2ccccc21)NCCCN1CCOCC1", "Potency": "active: 18.4 µM"}
{"smiles": "O=C(NNc1ccccc1)Nc1ccccc1F", "Potency": "active: 7.31 µM"}
{"smiles": "CCc1nc(SC)[nH]c(=O)c1C", "activity change, negative = growth inhibition": "inactive: 4.53%"}
{"smiles": "COc1ccc(CNC(=O)C/C(C)=N/NC(=O)c2cnccn2)cc1", "activity change, negative = growth inhibition": "inactive: 13.2%"}
{"smiles": "CN(C)S(=O)(=O)c1cccc(NC(=O)COC(=O)c2ccc3c(c2)OCO3)c1", "Potency": "inconclusive: 14.6 µM [inhibitor, single point]"}
{"smiles": "Cc1ccc(NC(=O)CCOc2ccccc2C)cc1C", "Potency": "inconclusive: 29.1 µM [inhibitor, single point]"}
{"smiles": "Cc1ccc(-c2nnc3ccc(SCC(=O)NCc4ccco4)nn23)cc1", "activity change, negative = growth inhibition": "inactive: -9.85%"}
{"smiles": "O=C(CC1N=C2c3ccccc3N=C(SCc3ccccc3F)N2C1=O)NCc1ccc2c(c1)OCO2", "note": "(stereo unspecified)", "Potency": "inconclusive: 29.1 µM [inhibitor, single point]"}
{"smiles": "CCC1CCCCN1S(=O)(=O)c1ccc(NC(=O)C2CC(=O)N(C(C)(C)C)C2)cc1", "note": "(stereo unspecified)", "activity change, negative = growth inhibition": "inactive: -23.9%"}
{"smiles": "CC(=O)Nc1cc(-c2cccc(N)c2)cn2c(-c3ccccc3)cnc12", "Potency": "inconclusive: 23.1 µM [inhibitor, single point]"}
{"smiles": "COc1ccc(Cl)cc1NC(=O)CN(c1cccc(C)c1C)S(=O)(=O)c1ccccc1", "Potency": "active: 23.1 µM"}
{"smiles": "Cc1nc(Nc2ccc(Cl)cc2)c2oc3ccccc3c2n1", "Potency": "inconclusive: 18.4 µM [inhibitor, single point]"}
{"smiles": "O=C(NCc1ccc(Cl)cc1)c1cnc2sc(N3CCCC3)nn2c1=O", "Potency": "inconclusive: 2.06 µM [inhibitor, partial curve]"}
{"smiles": "O=C(NC(=S)Nc1nc(-c2cccc([N+](=O)[O-])c2)cs1)c1cc(Cl)ccc1Cl", "Potency": "active: 16.4 µM"}
{"smiles": "COc1ccc(C2c3c(n(C)c4ccccc34)C(=O)N2CC(=O)Nc2ccccc2F)cc1", "note": "(stereo unspecified)", "Potency": "inconclusive: 18.4 µM [inhibitor, single point]"}
{"smiles": "CC(C)(C)NC(=O)Cn1nnc(-c2ccccc2NC(=O)c2ccco2)n1", "Potency": "inconclusive: 25.9 µM [inhibitor, single point]"}
{"smiles": "O=C1CC(N2CCC(c3nc4ccccc4[nH]3)CC2)C(=O)N1c1ccccc1F", "note": "(stereo unspecified)", "Potency": "inconclusive: 18.4 µM [inhibitor, single point]"}
{"smiles": "COc1ccc(Cl)cc1-c1nc(SCC(=O)NCC2CCCO2)n[nH]1", "note": "(stereo unspecified)", "activity change, negative = growth inhibition": "inactive: 4.67%"}
{"smiles": "O=S(=O)(Nc1ccc2cn[nH]c2c1)c1ccc(Cl)cc1", "Potency": "inconclusive: 29.1 µM [inhibitor, single point]"}
{"smiles": "Cn1c(=O)n(CC(=O)N2CCN(c3nnc(-c4ccccc4)c4ccccc34)CC2)c2ccccc21", "Potency": "inconclusive: 1.46 µM [inhibitor, full curve]"}
{"smiles": "CCOc1ccc2[nH]c(=O)c(CN(CCO)C(=O)c3ccc(F)cc3)cc2c1", "activity change, negative = growth inhibition": "inactive: -9.56%"}
{"smiles": "CCOC(=O)N1CCC(NC(=O)c2ccc3c(c2)N(C)CCS3)CC1", "Potency": "inconclusive: 29.1 µM [inhibitor, single point]"}
{"smiles": "O=C1NC(=Nc2ccccc2)SC1(CO)CO", "activity change, negative = growth inhibition": "inactive: -0.741%"}
{"smiles": "COc1ccc(NC(=O)CSc2nnc(NC(=O)C3CC3)s2)cc1OC", "activity change, negative = growth inhibition": "inactive: 7.17%"}
{"smiles": "COc1cccc(OC)c1OCCCOc1ccc(C)cc1Br", "Potency": "inconclusive: 29.1 µM [inhibitor, partial curve, poor fit]"}
{"smiles": "CCOc1ccc2nc(N=NC3=C(O)CC(C)(C)CC3=O)sc2c1", "Potency": "active: 4.11 µM"}
{"smiles": "C=CCn1c(C)c(C(C)=O)c(N2CCN(C(c3ccccc3)c3ccccc3)CC2)nc1=S", "Potency": "active: 23.1 µM"}
{"smiles": "Cc1cc(=O)oc2c(CN3CCCCC3)c(O)ccc12", "Potency": "inconclusive: 11.6 µM [inhibitor, partial curve, poor fit]"}
{"smiles": "CCc1ccc(CNC(=O)c2cc(-c3ccc(Cl)s3)nc3ccccc23)cc1", "Potency": "inconclusive: 25.9 µM [inhibitor, single point]"}
{"smiles": "Clc1cncc(Cl)c1N/N=C/c1ccccc1", "activity change, negative = growth inhibition": "inactive: -16.9%"}
{"smiles": "CCOc1ccc(NC(=O)Cn2c(=O)oc3cc(S(=O)(=O)N4CCCCCC4)ccc32)cc1", "Potency": "active: 20.6 µM"}
{"smiles": "Cc1ccc(CCNC(=O)c2ccc(CSCc3ccccc3Cl)o2)cc1", "Potency": "inconclusive: 23.1 µM [inhibitor, single point]"}
{"smiles": "COc1ccc(N2CCC(CNC(=S)Nc3ccc(C)cc3C)C2)cc1", "note": "(stereo unspecified)", "Potency": "active: 18.4 µM"}
{"smiles": "CC1(C)CC(NCCN2CCN(C3=CC(=C(C#N)C#N)CC(C)(C)C3)CC2)=CC(=C(C#N)C#N)C1", "Potency": "active: 13 µM"}
{"smiles": "COC(=O)[C@]1(Cc2ccccc2)N[C@H](CN(C)C(=O)Nc2ccc(Cl)cc2)[C@@H]2C(=O)N(Cc3ccccc3)C(=O)[C@@H]21", "Potency": "inconclusive: 20.6 µM [inhibitor, single point]"}
{"smiles": "CCOC(=O)c1c(C)nsc1NCc1ccccc1", "Potency": "inconclusive: 5.8 µM [inhibitor, partial curve, poor fit]"}
{"smiles": "CNC(=O)C1CCN(S(=O)(=O)c2c(C)noc2/C=C/c2cccc(C)c2)CC1", "activity change, negative = growth inhibition": "inactive: -2.36%"}
{"smiles": "CC1CCN(S(=O)(=O)c2ccc(Oc3ccc([N+](=O)[O-])cc3)cc2)CC1", "Potency": "active: 16.4 µM"}
{"smiles": "COc1cc(NC(=O)c2ccccc2)c(OC)cc1NC(=O)Cc1ccc(C)cc1", "activity change, negative = growth inhibition": "inactive: -23.8%"}
{"smiles": "C=CCNC(=O)C1CC(=O)N(c2ccc(OCC(=O)Nc3ccc(Cl)cc3)cc2)C1", "note": "(stereo unspecified)", "Potency": "inconclusive: 11.6 µM [inhibitor, single point]"}
{"smiles": "O=C(NC1CCC(O)CC1)c1cc(Cl)c2c(c1)OCCO2", "note": "(stereo unspecified)", "activity change, negative = growth inhibition": "inactive: -22.8%"}
{"smiles": "OCCC#Cc1c(-c2ccsc2)sc2ccccc12", "activity change, negative = growth inhibition": "inactive: -25.6%"}
{"smiles": "CCn1c(SCC(=O)N/N=C/C=C/c2ccco2)nnc1-c1ccccc1", "activity change, negative = growth inhibition": "inactive: -21%"}
{"smiles": "O=C(COc1ccccc1)NC1CCCc2ccccc21", "note": "(stereo unspecified)", "activity change, negative = growth inhibition": "inactive: -27.9%"}
{"smiles": "COC(=O)C(NC(=O)c1cccnc1Cl)C(C)C", "note": "(stereo unspecified)", "activity change, negative = growth inhibition": "inactive: -2.47%"}
{"smiles": "CCOC(=O)N1CCc2c(sc3c2c(=O)n(-c2ccc(CC)cc2)c(=O)n3CC(=O)Nc2ccc(C)cc2)C1", "Potency": "inconclusive: 29.1 µM [inhibitor, single point]"}
{"smiles": "COc1cc(=O)n2c(c1C(=O)N(C)Cc1cscn1)CCN(Cc1ccc3c(c1)OCCO3)CC2", "activity change, negative = growth inhibition": "inactive: 9.11%"}
{"smiles": "O=C(Nc1ccc2c(c1)OCO2)c1cc(C2CCCN(C(=O)CCc3ccccc3)C2)on1", "note": "(stereo unspecified)", "Potency": "inconclusive: 18.4 µM [inhibitor, single point]"}
{"smiles": "CCOC(=O)c1sc(NC(=O)c2ccc(S(=O)(=O)N3CCOCC3)cc2)cc1C", "Potency": "inconclusive: 20.6 µM [inhibitor, single point]"}
{"smiles": "Cc1ccccc1NC(=O)c1c(NC(=O)Cc2ccccc2)sc2c1CCC2", "Potency": "inconclusive: 18.4 µM [inhibitor, single point]"}
{"smiles": "O=C(Cc1n[nH]c(=O)c2ccccc12)Nc1cc(Cl)ccc1-n1cncn1", "activity change, negative = growth inhibition": "inconclusive: -33.1% [inhibitor]"}
{"smiles": "CN(C)S(=O)(=O)n1cc(/C=C(\\NC(=O)c2ccccc2)C(=O)NCCCn2ccnc2)c2ccccc21", "Potency": "inactive"}
{"smiles": "CCOc1ccc(CNC(=O)c2ccc3c(c2)c(C)c(C)n3Cc2ccc(Cl)cc2)cc1", "Potency": "inconclusive: 20.6 µM [inhibitor, single point]"}
{"smiles": "COc1ccc(Cl)c(Cn2c(NCc3ccco3)nc3c2c(=O)n(C)c(=O)n3C)c1", "Potency": "active: 3.66 µM"}
{"smiles": "COc1cccc(C(=O)O[C@H]2[C@H](Cc3ccccc3)NS(=O)(=O)[C@H]3C[C@@H]4C=C[C@]23O4)c1", "Potency": "inconclusive: 14.1 µM [inhibitor, single point] and inconclusive: 29.1 µM [inhibitor, single point]"}
